This data set concerns ATP. The data set can be described thus: switch fluorescence ratio, 500 uM ATP over buffer (Cy3 cluster intensity, sum of 5 cycles each) (fold (ratio)); higher = stronger signal-on switching upon ATP binding; sequences stand for … in TCGTCGGCAGCGTCAGATGTGTATAAGAGACAGTTTTTTTTTTTTTTTTTTTTTTTTT…TC. The conditions noted are these: aptamer strand: ATP DNA aptamer (quencher-CACCTGGGGGAGTATTGCGGAGGAAGG + anchor), 100 nM annealed; ATP concentration: 500 uM; one replicate. An outline of the steps: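 Exposure to 500 uM ATP lasted 15 min at 22 °C before imaging, and a selection-buffer image was taken beforehand, for Cy3-labelled switching-strand clusters on a modified Illumina MiSeq flow-cell annealed to 100 nM quencher-labelled ATP aptamer. Five buffer/ATP cycles were run with NaOH stripping and re-annealing between them. The fluorescence ratio per cluster is summed target-cycle over summed buffer-cycle Cy3 intensity, averaged per switch-domain sequence. Clusters outside 100-1000 RFU were excluded.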

Sequences with one replicate were seen in a single cluster, so their values are uncertain.

In the supplement of paper PMC10126150 one finds switch fluorescence ratio data, which are given here for 78 sequences.

For ACGCTGTGCT, the switch fluorescence ratio is 1.04.
GTCAATTATA: the switch fluorescence ratio was 0.968.
Consider TATTGATTCA, for which the switch fluorescence ratio was found to be 0.971.
For GCGGTGGGTC, the switch fluorescence ratio turned out to be 1.03.
Regarding ACTAGGTGCT, the switch fluorescence ratio amounted to 0.951.
TCACACGGGA: the switch fluorescence ratio worked out at 1.03.
In the case of ATTTGGTAGA, the switch fluorescence ratio amounted to 1.
Consider GGTCTGACGG, for which the switch fluorescence ratio came to 1.01.
In the case of CTCTAGGAGA, the switch fluorescence ratio stood at 0.968.
In the case of ACGCTGGACG, the switch fluorescence ratio amounted to 1.06.
On to GTTGCTGGGC, for which the switch fluorescence ratio was 0.992.
Turning to CTGTCCCAAA, the switch fluorescence ratio was 1.03.
Take GGCTCGTTAC: the switch fluorescence ratio stood at 1.19.
With GGCGGGGGT, the switch fluorescence ratio worked out at 1.
Regarding TAATCGGTTA, the switch fluorescence ratio was 0.969.
With AACGGAAGGA, the switch fluorescence ratio worked out at 1.03.
On to CCCCGAGAAC, for which the switch fluorescence ratio turned out to be 2.93.
On to AGTGGATTTA, for which the switch fluorescence ratio was found to be 1.01.
For GTTCCGAGCT, the switch fluorescence ratio is 2.06.
Take TTAGCCATTT: the switch fluorescence ratio was 1.03.
As to TTTCGCAGAT, the switch fluorescence ratio was determined as 1.06.
Regarding GTTGTGGGGC, the switch fluorescence ratio was found to be 0.999.
For CTATTGCTAC, the switch fluorescence ratio worked out at 1.71.
As to CTACTCAAAA, the switch fluorescence ratio was 1.22.
Regarding AGGCAGATCT, the switch fluorescence ratio was determined as 0.989.
On to AGGACTCT, for which the switch fluorescence ratio is 1.
In the case of CTTATGTCAA, the switch fluorescence ratio is 1.06.
On to TATCAACTGT, for which the switch fluorescence ratio amounted to 0.992.
For the sequence CGGTTACATG, the switch fluorescence ratio was found to be 0.977.
TAGGCCTCTT: the switch fluorescence ratio is 0.983.
As to AAATAATGAA, the switch fluorescence ratio was determined as 0.977.
On to CTTTGGTGAC, for which the switch fluorescence ratio came out at 1.06.
Consider GGATCTACTA, for which the switch fluorescence ratio was found to be 0.985.
Take ACCACCTCGG: the switch fluorescence ratio was 1.07.
As to CGATAATAGA, the switch fluorescence ratio was 0.99.
With GTTTTGCGTA the figure was 0.963; with TACGAGCGCA, 1.57.
On to GCTAAGAATC, for which the switch fluorescence ratio turned out to be 0.973.
AGTTTAGGTT: the switch fluorescence ratio is 0.958.
Consider GCTTGATGGT, for which the switch fluorescence ratio was 0.977.
Take AGCGTCGCGG: the switch fluorescence ratio amounted to 1.05.
With CGGCTGCGTA the figure was 1.01.
Turning to CCAAGACCTG, the switch fluorescence ratio amounted to 1.
With CATTGGATGG, the switch fluorescence ratio is 1.01.
Take CCTAACTCCC: the switch fluorescence ratio was determined as 2.69.
In the case of ATCCCGCCGT it was 1; in that of GACCGGTCAT, 0.96.
With CGCATAAAAA the figure was 1.06.
Take CAAGACCTCG: the switch fluorescence ratio is 0.981.
For the sequence CACCTTAGTA, the switch fluorescence ratio was found to be 1.05.
In the case of GCCCTAGGGT it was 1.09.
With ATGACTGTGT the figure was 0.96; with GGGCGGTGCG, 1.04.
With GATGCTCAGA, the switch fluorescence ratio worked out at 1.02.
In the case of TAGTTAGACC it was 0.985; in that of TGGAGGGCCG, 1.13; in that of CCGGGACGTT, 1.03.
On to CGGCATTACA, for which the switch fluorescence ratio was determined as 1.83.
Take TGTATGTTCC: the switch fluorescence ratio turned out to be 1.09.
Regarding CAGCTAATGG, the switch fluorescence ratio came to 1.25.
Consider GGCTTCCCCG, for which the switch fluorescence ratio was 4.36.
With CATGACGG the figure was 1.03.
With TCGCACCGCC the figure was 1.2.
Consider GGTGAGAGCA, for which the switch fluorescence ratio amounted to 0.96.
In the case of ACAAACTGTG it was 1.09; in that of TATCCAGATG, 1.11.
In the case of TTATGGGAGC, the switch fluorescence ratio came out at 1.02.
In the case of TACTGCAC it was 1.5.
In the case of TGGATCAGTA, the switch fluorescence ratio was 1.
Turning to AAAGGACCTT, the switch fluorescence ratio was 1.12.
As for GTTTTGTGAA, the switch fluorescence ratio turned out to be 1.
Consider TGTATGGAGT, for which the switch fluorescence ratio was 0.975.
As for AACGCTGGGC, the switch fluorescence ratio amounted to 1.02.
With ACTAGCTTG the figure was 0.956; with AAAAACTCGC, 1.23.
In the case of TATATCACAC it was 1.08.
With TTAATTCCGG the figure was 1.01.
For CATAGTAGC, the switch fluorescence ratio is 0.968.
